According to PMC4336329 (PLoS ONE, 2015):
The whole screen tested about 310,000 compounds, of which about 2,200 (0.71%) showed an effect of 50% or more. The effect is printed as a negative number. This is one part of the list.

Each compound was assayed against human ether-à-go-go-related gene (hERG) potassium channel (human, UniProt Q12809) (assay: primary screen, population patch clamp on CHO cells stably expressing hERG).
Chain of human ether-à-go-go-related gene (hERG) potassium channel (Q12809 whole entry, looked up): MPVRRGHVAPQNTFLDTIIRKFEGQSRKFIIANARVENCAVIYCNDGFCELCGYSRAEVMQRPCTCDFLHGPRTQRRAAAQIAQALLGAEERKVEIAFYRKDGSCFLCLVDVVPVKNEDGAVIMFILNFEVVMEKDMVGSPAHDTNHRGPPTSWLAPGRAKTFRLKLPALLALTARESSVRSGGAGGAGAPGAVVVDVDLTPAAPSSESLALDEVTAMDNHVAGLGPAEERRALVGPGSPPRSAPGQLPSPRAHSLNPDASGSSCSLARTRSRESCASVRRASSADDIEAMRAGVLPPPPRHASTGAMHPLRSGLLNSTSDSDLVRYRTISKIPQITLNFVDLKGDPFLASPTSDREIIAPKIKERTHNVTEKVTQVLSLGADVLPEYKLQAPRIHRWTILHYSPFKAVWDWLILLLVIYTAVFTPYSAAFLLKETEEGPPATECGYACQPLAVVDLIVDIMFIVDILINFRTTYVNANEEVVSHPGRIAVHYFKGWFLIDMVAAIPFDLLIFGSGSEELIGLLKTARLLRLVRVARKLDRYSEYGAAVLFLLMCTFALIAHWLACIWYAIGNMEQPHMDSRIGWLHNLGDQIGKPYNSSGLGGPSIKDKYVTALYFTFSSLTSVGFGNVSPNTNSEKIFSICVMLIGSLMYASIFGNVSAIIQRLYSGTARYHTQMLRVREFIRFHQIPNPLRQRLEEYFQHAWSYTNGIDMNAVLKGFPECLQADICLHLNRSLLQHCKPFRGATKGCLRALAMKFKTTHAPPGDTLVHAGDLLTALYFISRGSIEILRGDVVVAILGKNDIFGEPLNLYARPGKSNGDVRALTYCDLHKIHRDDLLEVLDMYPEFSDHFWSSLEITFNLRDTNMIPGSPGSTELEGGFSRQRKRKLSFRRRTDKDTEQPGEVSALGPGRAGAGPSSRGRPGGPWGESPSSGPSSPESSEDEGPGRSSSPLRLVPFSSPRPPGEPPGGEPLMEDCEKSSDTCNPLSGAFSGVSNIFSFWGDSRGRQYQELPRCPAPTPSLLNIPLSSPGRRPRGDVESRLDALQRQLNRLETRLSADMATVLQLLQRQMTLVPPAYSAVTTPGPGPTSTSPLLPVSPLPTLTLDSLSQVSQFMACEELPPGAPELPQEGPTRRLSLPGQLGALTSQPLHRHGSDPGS

SMILES	hERG current change (%, negative = inhibition) at 1uM
COc1ccc(CNC(=O)c2ccccc2SCC(=O)N2CCCC2)cc1OC	11.4%
CC(=O)c1ccc(NC(=O)CN(c2c(C)cccc2C)S(C)(=O)=O)cc1	14.4%
CCOc1ccc(S(=O)(=O)N2c3ccccc3CC2C)cc1 (stereo not drawn)	9.93%
O=C(Nc1ccccc1)C1=C[C@@H](C2CC2)C[C@@H](OCc2ccc(CO)cc2)O1	8.92%
CSc1nc(N2CCN(c3ccccc3Cl)CC2)c2ccccc2n1	11.6%
CC(=O)N1C2CCCCC2S[C@H]2CCCCC21 (stereo partly drawn)	14.8%
Cc1cc(Br)ccc1SCC(=O)NNC(=O)c1ccco1	8.81%
Cc1ccc(OCC(=O)NCc2ccccn2)c(Br)c1	4.5%
CCOC(=O)N1CCN(C(=O)COc2ccc3c(c2)C(=O)CC(C)(C)O3)CC1	12.2%
COc1cccc(-c2nc(CS(=O)CC(=O)NCc3ccccc3)c(C)o2)c1 (stereo not drawn)	10.8%
O=C(CN1CCOCC1)NCc1ccccc1	17.4%
COc1ccc(-c2cc(C(F)(F)F)nc(SCCC(=O)N3CCOCC3)n2)cc1	1.29%
CC(C)S(=O)(=O)CC(=O)c1ccc(Cl)cc1	16.5%
CCc1nnc(NC=C2C(=O)OC(C)(C)OC2=O)s1	3.72%
Cc1oc2c(O)c(O)ccc2c(=O)c1-c1cnn(-c2ccccc2)c1	-10.1%
CCN1CCN(CC(O)COCc2ccccc2)CC1.Cl (stereo not drawn)	23.5%
Nc1ccc(C(=O)NCCCSc2ccccc2)cc1[N+](=O)[O-]	12.5%
C/C(CCc1ccc2c(c1)OCO2)=N\N=C1\NC(=O)CC(C(=O)Nc2ccccc2)S1 (stereo not drawn)	-1.54%
COc1cccc(C(=O)N2CCCC(Nc3ccc(C)c(C)c3)C2)c1 (stereo not drawn)	8.93%
Clc1ccc(-c2nnc(SCc3cn4ccsc4n3)n2CC2CCCO2)cc1 (stereo not drawn)	-2.27%
CC(C)Sc1nc2ccsc2c(=O)[nH]1	8.75%
CCCCC[C@H]1CN(CCc2ccccc2)C(=O)[C@@H]1CC(=O)NCc1ccc(OC)cc1	-28.1%
O=C(CCc1nc(-c2ccc(Cl)cc2)no1)NCc1ccccc1CN1CCOCC1	-4.84%

SMILES	hERG current change (%, negative = inhibition) at 1uM
Cc1ccc(CNC(=O)CCCc2ccccc2)cc1	-1.51%
COc1cc(Br)c(CCNC(=O)Cc2ccccc2)cc1OC	1.68%
C=CCn1c(SCC(=O)NCc2ccccc2)nnc1-c1cc(Br)ccc1O	1.72%
CC(C)(C)NC(=O)c1ccccc1NC(=O)c1ccc2c(c1)OCO2	9.29%
Cn1c(=O)c2c(ncn2CC(=O)N2CCN(S(=O)(=O)c3ccccc3)CC2)n(C)c1=O	13.7%
NC(=O)CC(NC(=O)c1cccc(Br)c1)c1ccc(N2CCN(c3ccc(F)cc3)CC2)c([N+](=O)[O-])c1 (stereo not drawn)	2.68%
CC(=O)c1cc2c(cc1NC(=O)CSc1nc3ccc(C)cc3[nH]1)OCO2	-3.23%
CCOC(=O)/C(C#N)=C/c1cc(C)n(-c2ccc(Br)cc2)c1C	9.31%
COC(=O)c1cccc(NC(=O)c2cccnc2)c1.Cl	-6.64%
O=C(Cc1n[nH]c(=O)c2ccccc12)NCc1ccccc1	-9.53%
CCn1c(SCC(N)=O)nc2sc3c(c2c1=O)CCN(C)C3	14.1%
CC(SC1=NCCN1S(C)(=O)=O)c1ccccc1 (stereo not drawn)	8.7%
Cc1cc(=O)[nH]c(SCC(=O)Nc2nc(-c3ccccc3)c(-c3ccccc3)o2)n1	2.67%
CC1CC(=O)c2c(cc3c(-c4c(O)cc(O)c5c(O)c6c(cc45)OC(C)CC6=O)c(O)cc(O)c3c2O)O1 (stereo not drawn)	1.55%
O=C(NCCN1CCOCC1)Nc1ccccc1	0.366%
COc1ccc(N(CC(=O)N2CCN(Cc3ccccc3)CC2)S(C)(=O)=O)c(OC)c1	12.5%
CNC(=O)C(NC(=O)c1ccccc1)=C(C)C	-1.26%
COc1cccc(-c2cc(C(=O)NC3CCCC3)no2)c1	4.68%
COc1ccc(-n2c(=O)cc(N3CCN(c4ccccc4)CC3)[nH]c2=O)cc1	11%
O=C(COc1ccc2ccccc2c1)NCCc1ccc2c(c1)OCCO2	2.52%
COc1cccc(NC(=O)COC(=O)c2c(C)noc2C)c1	6.06%
O=C(NCc1cccc2[nH]ccc12)C1CCC(=O)N(CCc2ccccc2)C1 (stereo not drawn)	16.1%
O=C(CN1C(=O)c2ccccc2C1=O)N1CCCCC1	-0.852%

SMILES	hERG current change (%, negative = inhibition) at 1uM
COc1ccc(-c2csc(N(CCCN(C)C)C(=O)c3ccccc3Cl)n2)cc1.Cl	-12.5%
COc1ccc(NC(=O)CCN2CCN(c3ccc(F)cc3)CC2)cc1	3.95%
Cc1c(C(=O)N2CCN(c3ccccc3)CC2)sc2ncnc(N3CCN(c4ccccn4)CC3)c12	1.37%
COc1ccc(-c2nc(C#N)c(N3CCC(C(N)=O)CC3)o2)cc1	0.104%
Cc1ccccc1C(=O)NC(NC(=S)Nc1ccc(S(N)(=O)=O)cc1)C(Cl)(Cl)Cl (stereo not drawn)	15.9%
C=C(C)C1CC=C(C)/C(=N/NC(=O)CCCNc2cccc(C)c2)C1 (stereo not drawn)	13.2%
O=C(NCc1ccccc1)Nc1cccn(Cc2ccccc2Cl)c1=O	11.3%
O=C(Nc1cccc(C(F)(F)F)c1)C1CC(=O)N(CCc2ccccc2)C1 (stereo not drawn)	7.45%
COCCCNC(=O)c1ccc(C2SCC(=O)N2Cc2ccco2)cc1 (stereo not drawn)	9.55%
Cc1cc(Br)cc(C)c1OCC(=O)NNC(=O)c1cccs1	5.21%
Cn1c(=S)[nH]c2[nH]c(=O)cnc2c1=O	4.61%
Cc1cc(S(=O)(=O)N2CCCCC2)ccc1OCC(=O)N1CCOCC1	-4.6%
CN(CC(=O)Nc1cccc2ccccc12)C(=O)c1cccc(S(=O)(=O)N(C)C)c1	6.51%
CN(c1ccc(C(=O)NCCSCc2c(F)cccc2Cl)cc1)S(C)(=O)=O	9.84%
O=S(=O)(Cc1ccccc1)N=Nc1c(O)[nH]c2ccc(Br)cc12	12.7%
COc1ccc2[nH]c(C(=O)N/N=C/c3cc(OC)c(OC)c(OC)c3)cc2c1	9.96%
O=S(=O)(NCc1ccncc1)c1ccccc1	7.96%
CCOP(=O)(OCC)C(C)(C)NC(=O)C(Cl)(Cl)Cl	10.2%
Cc1cc(-c2ccc(S(=O)(=O)NCc3ccc(F)cc3)cc2)on1	13%
Cc1cc(C)c2nc(-c3ccccn3)cc(C(=O)NCCc3ccc(S(N)(=O)=O)cc3)c2c1	14.6%
Cc1cccc(OCC(=O)Nc2cccc(C(=O)NCC(C)C)c2)c1	4.84%
Cc1c(CN2CCC(Oc3ccc(C(=O)N4CCCCC4)cc3)CC2)cnn1C	7.8%
CCCNC(=O)Cn1cnc2sc(C(=O)Nc3ccc4c(c3)OCO4)c(C)c2c1=O	7.35%

SMILES	hERG current change (%, negative = inhibition) at 1uM
CC1CCCC(C2(O)C(=O)Nc3ccccc32)C1=O (stereo not drawn)	16.2%
Cc1cc(NC(=O)CSc2nc(CCC3CCCC3)nc3ccccc23)no1	-4.97%
O=C1CCC(C(=O)N(CCO)Cc2ccccc2)CN1CC1CCCCC1 (stereo not drawn)	14.5%
O=C(OCc1csc(-c2ccccc2)n1)c1cccs1	14.4%
CCOc1ccc(NC(=S)Nc2ccc(OC(F)(F)F)cc2)cc1	7.91%
O=C(OCCN=C1NS(=O)(=O)c2ccccc21)c1cccnc1	12.5%
COc1cc(C2Nc3ccccc3NC3=C2C(=O)CC(C)(C)C3)cc(OC)c1OC (stereo not drawn)	7.21%
CCOC(=O)N1CCN(S(=O)(=O)c2ccc(C)c(C)c2)CC1	11.6%
O=C1NC(=O)C(=Cc2cn(CCOc3ccc4c(c3)OCO4)c3ccccc23)C(=O)N1	14.7%
N#Cc1nc(-c2ccc(F)cc2)oc1NCc1ccco1	7.32%
CC(OC(=O)c1cccc(-n2cnnn2)c1)c1nc2ccccc2c(=O)[nH]1 (stereo not drawn)	7.2%
Cc1ccnc(SCc2cc(=O)c(OC(=O)c3ccc(Br)o3)co2)n1	5.12%
CC1CCc2sc3c(c2C1)c(=O)n(CC(=O)O)c(=O)n3Cc1ccc(Cl)cc1 (stereo not drawn)	10%
O=C(NCCCCNC(=O)c1ccc(F)cc1)c1ccc(F)cc1	14.3%
Cc1ccc(S(=O)(=O)c2cc3c(=O)n4cccc(C)c4nc3n(C3CCCCC3)c2=N)cc1	8.4%
CCn1c(=O)c2c3c(sc2n(C)c1=O)CCC3	3.87%
CCc1nnc(NC(=O)CSc2ncnc3c2cnn3-c2ccc(OC)cc2)s1	10%
Cc1ccc(SCCC(=O)Nc2ccccc2C(=O)NC(C)C)cc1	-0.81%
CSCC(NS(=O)(=O)c1ccc(C)cc1)C(=O)O (stereo not drawn)	7.57%
CCSc1nnc2c(Cl)cc(Cl)cn12	6.54%
CCCCn1c(N)c(N(Cc2ccccc2OC)C(=O)CCSC)c(=O)[nH]c1=O	5.97%
